Assay results taken from PubChem BioAssay AID686978 (National Center for Advancing Translational Sciences (NCATS), 2013).
Among all 420,000 compounds or so, about 64,000 (15%) were called active. The inconclusive results got no clear call from the source; some entries with a clear call stand among them for comparison. The call rests on the fitted dose curve; in most records, active means well fitted inhibition curve with a large enough effect; inconclusive means small, poorly fitted or top-dose-only effect; inactive means flat fitted curve, though single readings scatter. Potencies of inconclusive entries are left out as doubtful fits.

Experiment: qHTS for Inhibitors of human tyrosyl-DNA phosphodiesterase 1 (TDP1): qHTS in cells in absence of CPT; further: nearly all actives have a fitted effect of over 55% in size
Details: DT40 Tdp1-/- hTDP1 cells, no CPT, ATP luminescence, 48 h; activity change, negative = growth inhibition: at 46.2 µM (top of the series) unless noted
Method in brief: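 Cells were dispensed at 400 per well, compounds added by pin tool, plates incubated ≥48 hr at 37 °C, then CellTiter-Glo added for 30 min at room temperature before luminescence reading. Line: DT40 Tdp1-/- complemented with hTDP1; camptothecin omitted.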
On the % scale 0 is the no-effect control and ±100 the full control effect; potency means the concentration at half of the fitted maximal effect; tags describe the fitted curve by direction and shape.

SMILES	Potency	activity change, negative = growth inhibition
CCN(CC)S(=O)(=O)c1ccc(N2CCOCC2)c(NC(=O)CSCc2c(C)noc2C)c1	inactive	
C=CCNC(=O)COc1cc(C)ccc1C		inconclusive: -30.1% [inhibitor]
CCOc1cc(C(=O)Nc2cc3c(cc2N2CCCC2)n(C)c(=O)c(=O)n3C)cc(OCC)c1OCC	inactive	
COc1ccc2c(c1OC)C(=O)N1C2SC(C)(C)[C@H]1C(=O)NC(C)C (some centres not stated)	inactive	
Cc1ccc(S(=O)(=O)N(C)C)cc1-n1c(SCC(=O)Nc2ccccc2)nc2ccccc2c1=O	inconclusive [inhibitor, single point]	
Cc1cccc(C)c1NC(=O)C(NC=O)c1ccc(Cl)cc1 (configuration not stated)	inconclusive [inhibitor, single point]	
CC1C(=O)Nc2ccccc2N1C(=O)c1ccc(F)cc1F (configuration not stated)	inactive	
Cc1cc(C)c2nc(C)cc(Nc3cccc(C(=O)O)c3)c2c1	inactive	
Cc1cc(Cl)cc(C)c1OCCCCN1CCOCC1	inconclusive [inhibitor, partial curve]	
O=C(Nc1ccccc1OC(F)F)c1cccc(S(=O)(=O)N2CCCC2)c1	inconclusive [inhibitor, single point]	
Cc1ccc(-c2nn(C(C)(C)C)c3ncnc(NS(=O)(=O)c4ccc([N+](=O)[O-])cc4)c23)cc1	active: 18.4 µM	
COc1ccc(CC(=O)Nc2ccc(S(=O)(=O)N3CCOCC3)cc2)cc1	inactive	
CCC(=O)N[C@@H]1Cc2ccccc2[C@@H](c2ccccc2)C1	inconclusive [inhibitor, partial curve, poor fit]	
CCOC(=O)c1c(-c2ccc(C)cc2)csc1/N=C(\C)C1=C(O)c2ccccc2C1=O	active: 18.4 µM	
Cc1ccc(NS(=O)(=O)c2ccc3c(c2)oc(=O)n3C)cc1	inconclusive [inhibitor, partial curve]	
Cc1cc(N/N=C2/CCCc3ccccc32)nc2ccccc12	active: 10.3 µM	
CC(=O)Nc1cccc(-c2ccnc3c2CC(C)(C(=O)Nc2cccc(Oc4ccccc4)c2)O3)c1 (configuration not stated)	active: 20.6 µM	
O=C(NC1CCN(Cc2ccccc2)CC1)c1ccc(Cn2c(=O)c3ccccc3n(Cc3ccc(Cl)cc3)c2=O)cc1	inconclusive [inhibitor, single point]	
Cn1c(Cl)c(C(=O)Nc2ccccc2)c2ccccc21	inconclusive [inhibitor, single point]	
COc1cccc(NC(=O)COc2cc(C)cc3oc(=O)cc(C)c23)c1	inactive	
Cc1ccccc1N(CC(=O)N/N=C/c1ccc(F)cc1)C(=O)c1ccccc1	inconclusive [inhibitor, single point]	
Cc1ccc(Sc2ccc(NC(=O)CCl)cc2)c(C)c1	active: 18.4 µM	
COc1cccc(S(=O)(=O)N(C)C[C@H]2OCc3cn(nn3)CCCC(=O)N([C@@H](C)CO)C[C@@H]2C)c1	inactive	
COc1ccc(N(CC(=O)NCc2ccc3c(c2)OCO3)C(=O)c2csnn2)cc1	inactive	

SMILES	Potency	activity change, negative = growth inhibition
Cc1ccc(C)c(NC(=O)CN2C(=O)CCc3cc(S(=O)(=O)N4CCCCC4)ccc32)c1	inconclusive [inhibitor, partial curve]	
O=c1cc(-c2ccccc2)[nH]c2cc(F)ccc12	active: 1.03 µM	
O=C(C1=C[C@@H](c2coc3ccccc3c2=O)C[C@@H](OCc2ccc(CO)cc2)O1)N1CCCCCCC1	inconclusive [inhibitor, partial curve, poor fit]	
CC(C)(C)c1nnc(N/N=C/c2ccccc2)n(N)c1=O	inconclusive [inhibitor, single point]	
COc1ccc(CCNCc2csc3nc4ccccc4n23)cc1OC	active: 9.2 µM	
O=C(CSc1n[nH]c(-c2ccccc2Cl)n1)NCc1cccc(C(=O)O)c1	inactive	
CC(C)OCCCNc1ncc2c(n1)CC(c1ccc(N(C)C)cc1)CC2=O (configuration not stated)	inconclusive [inhibitor, partial curve, poor fit]	
CC(=O)N1CCc2cc(S(=O)(=O)NC(Cc3ccccc3)C(=O)NCc3ccccc3)ccc21 (configuration not stated)	inactive	
O=C(c1cc2cc(F)ccc2[nH]1)N1CCN(Cc2ccc3c(c2)OCO3)CC1	inconclusive [inhibitor, single point]	
CCN(CC)c1ccc(/C=N/NC(=O)C2CC2)cc1	inconclusive [inhibitor, single point]	
Clc1ccccc1CNCC1CCC(CNCc2ccccc2Cl)CC1 (configuration not stated)	active: 2.99 µM	
O=C(NNS(=O)(=O)c1ccccc1[N+](=O)[O-])c1cc2ccccc2cc1O	inactive	
O=C(CSc1nccn1-c1ccc(F)cc1)Nc1nc2ccccc2s1	inactive	
[O-]/[N+](=C\c1ccccc1)c1ccccc1	inconclusive [inhibitor, single point]	
N#Cc1ccc(C(C(=O)NC2CCCCC2)n2c(=O)c(-c3cc4ccccc4[nH]3)nc3ccccc32)cc1 (configuration not stated)	active: 14.6 µM	
O=C(CC1N=C2c3ccccc3N=C(SCc3ccc(F)cc3)N2C1=O)NCCc1ccccc1 (configuration not stated)	inconclusive [inhibitor, single point]	
COc1ccc2[nH]c3c(c2c1)CCN(C(=O)CCC1CCCC1)C3c1ccc(F)cc1 (configuration not stated)	inconclusive [inhibitor, single point]	
COc1cc(OC)c(C(=O)OCC(=O)Nc2nnc(-c3ccccc3)o2)cc1OC	inactive	
COc1ccc(C(=O)N2CCN(S(=O)(=O)c3ccc(Br)cc3)CC2)cc1	inconclusive [inhibitor, partial curve]	
COc1ccc(S(=O)(=O)Nc2ncccc2C)c2ccccc12	inactive	
Cc1cccc(C)c1NC(=O)C(c1ccccc1F)n1c(=O)c(-c2cc3ccccc3[nH]2)nc2ccccc21 (configuration not stated)	inconclusive [inhibitor, single point]	
CC(C(=O)Nc1cccc([N+](=O)[O-])c1)N(c1ccccc1)S(C)(=O)=O (configuration not stated)	inactive	
CC1(C(=O)NS(=O)(=O)c2cccc(OC(F)F)c2)CCN1C(=O)Cc1ccsc1 (configuration not stated)	inactive	
O=C(c1csc2ccccc12)N1CCN(c2ccccn2)CC1	inconclusive [inhibitor, full curve]	

SMILES	Potency	activity change, negative = growth inhibition
COCCNc1nnc(SC(C)C(=O)Nc2ccc(-c3nc4ccc(C)cc4s3)cc2)s1 (configuration not stated)	inconclusive [inhibitor, partial curve]	
CC(C)(C)OC(=O)N1CCC(c2c(C(=O)N3CCN(c4ccccn4)CC3)cnn2-c2ccc(F)cc2F)CC1	inconclusive [inhibitor, single point]	
Cc1ccc(CNC(=O)C(Cc2ccccc2)NS(=O)(=O)c2ccc(Br)s2)cc1 (configuration not stated)	inconclusive [inhibitor, single point]	
CC(C)NC(=O)c1onc(CSc2ccc(Cl)cc2)c1C(=O)NC(C)C	inactive	
Cc1ccc(-c2cnc(C3CC3)o2)cc1S(=O)(=O)Nc1cccc(C)c1C	inconclusive [inhibitor, partial curve]	
C[C@@H]1CCC(=O)N(C[C@@H](C)CSc2ccccc2)CC1	inconclusive [inhibitor, single point]	
Cc1ccc(C)c(NC(=S)N2CCN(Cc3ccccc3)CC2)c1	inactive	
CCc1nc2c(OCc3ccccc3)cccn2c1N(C)C(=O)C(C)C	inconclusive [inhibitor, single point]	
Cc1nn(Cc2ccccc2)c2c1C(c1ccccc1)C(C#N)=C(N)O2 (configuration not stated)	active: 25.9 µM	
CC(C)C[C@H]1CN=C(Nc2ccccc2)N1CC1CCC(C)CC1 (some centres not stated)	active: 18.4 µM	
COc1cc(C2C3C(=O)N(c4ccccc4)C(=O)C3ON2c2ccccc2)cc(OC)c1OC (configuration not stated)	inactive	
O=c1c2ccccc2nc(N/N=C/c2c(O)ccc3ccccc23)n1O	active: 5.17 µM	
Cc1ccccc1NC(=O)C(=O)NCC1CCCN1S(=O)(=O)c1cccs1 (configuration not stated)	inconclusive [inhibitor, single point]	
c1cncc(N=c2scc(-c3cccc4ccccc34)n2CCCn2ccnc2)c1	inconclusive [inhibitor, single point]	
CCOC(=O)C1=C(COC(=O)CSc2ccc(Br)cc2)NC(=O)NC1C (configuration not stated)	inactive	
Cc1ccc(NC(=O)C2CCCN(c3ncnc4c3nc3n4CCCCC3)C2)c(Br)c1 (configuration not stated)	active: 4.11 µM	
CCn1c(=O)c2cc(C(=O)NCc3cc(OC)ccc3OC)sc2c2ccccc21	inconclusive [inhibitor, single point]	
CCN1CCN(c2csc3ccc(Br)cc3c2=O)CC1	inactive	
Cc1ccc(C)c(-c2nn(-c3cc(N4CCN(CCO)CC4)ccc3[N+](=O)[O-])c(=O)c3ccccc23)c1	active: 25.9 µM	
O=C(NCC1CCN(C(=O)c2c(F)c(F)c(F)c(F)c2F)CC1)c1c(F)c(F)c(F)c(F)c1F	inconclusive [inhibitor, single point]	
c1ccc(CCNc2ncnc3c2cnn3-c2ccccc2)cc1	inconclusive [inhibitor, single point]	
CCN(Cc1nc2cc(Cl)ccc2c(=O)[nH]1)C(=O)c1cc(C2CC2)nn1-c1ccccc1	active: 2.91 µM	
COC(=O)c1c(NC(=O)c2ccc(OC)cc2OC)sc2c1CCCCC2	inconclusive [inhibitor, single point]	
Cc1ccc(S(=O)(=O)N2CCC(C(=O)N[C@H](C(=O)NCC3CCCO3)C(C)C)CC2)cc1 (some centres not stated)	inactive	
